# Results: paper PMC4336329 (PLoS ONE, 2015)
# In all, about 310,000 compounds went through this assay and about 14,000 (4.5%) showed an effect of 50% or more. The effect is printed as a negative number. This is one part of the list.
# Biological target: human ether-à-go-go-related gene (hERG) potassium channel (human, UniProt Q12809)
# Test: primary screen, population patch clamp on CHO cells stably expressing hERG
# 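Note: peak tail current of the secondary pulse compared with the same well before compound.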
# human ether-à-go-go-related gene (hERG) potassium channel, sequence (Q12809 whole entry, looked up): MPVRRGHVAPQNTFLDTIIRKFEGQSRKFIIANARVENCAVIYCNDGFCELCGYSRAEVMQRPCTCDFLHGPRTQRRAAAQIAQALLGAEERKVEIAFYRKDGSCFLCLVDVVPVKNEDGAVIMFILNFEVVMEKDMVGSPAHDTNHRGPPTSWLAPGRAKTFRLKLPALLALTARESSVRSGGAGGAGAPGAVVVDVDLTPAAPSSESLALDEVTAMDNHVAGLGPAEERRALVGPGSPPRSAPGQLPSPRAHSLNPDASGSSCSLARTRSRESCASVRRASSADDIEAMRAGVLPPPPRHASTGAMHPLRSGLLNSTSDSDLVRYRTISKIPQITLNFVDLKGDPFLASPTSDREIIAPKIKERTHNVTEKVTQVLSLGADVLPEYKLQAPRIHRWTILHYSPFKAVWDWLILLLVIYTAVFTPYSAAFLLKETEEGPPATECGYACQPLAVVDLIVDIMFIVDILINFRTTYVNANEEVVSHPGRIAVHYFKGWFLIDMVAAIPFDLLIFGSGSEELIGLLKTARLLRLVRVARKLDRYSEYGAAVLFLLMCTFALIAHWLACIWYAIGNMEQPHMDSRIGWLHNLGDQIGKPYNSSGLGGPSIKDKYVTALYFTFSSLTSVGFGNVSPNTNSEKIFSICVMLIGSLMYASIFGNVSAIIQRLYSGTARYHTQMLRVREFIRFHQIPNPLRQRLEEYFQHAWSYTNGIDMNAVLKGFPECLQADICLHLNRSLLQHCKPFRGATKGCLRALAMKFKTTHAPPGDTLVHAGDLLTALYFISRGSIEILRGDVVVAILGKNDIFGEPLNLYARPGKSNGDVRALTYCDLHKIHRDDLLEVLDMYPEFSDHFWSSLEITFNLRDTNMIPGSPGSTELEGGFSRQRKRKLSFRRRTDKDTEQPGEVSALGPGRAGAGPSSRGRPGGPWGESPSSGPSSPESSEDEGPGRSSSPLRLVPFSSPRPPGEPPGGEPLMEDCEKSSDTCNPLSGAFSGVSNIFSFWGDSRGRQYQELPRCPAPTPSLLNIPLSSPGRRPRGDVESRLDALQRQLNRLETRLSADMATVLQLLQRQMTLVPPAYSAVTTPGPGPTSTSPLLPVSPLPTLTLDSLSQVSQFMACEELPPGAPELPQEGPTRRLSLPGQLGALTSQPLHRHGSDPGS
row,Structure (SMILES),"hERG current change (%, negative = inhibition) at 10uM [%]"
1,Cc1ccc2c(c1)N(CC(=O)NC1CCCCCC1)C(=O)c1cccnc1O2,-0.961
2,COCC(=O)N1CCc2ccc(NC(=O)c3ccccc3Cl)cc2C1,8.61
3,CCCc1cc(C(=O)Nc2cc(Cl)ccc2O)no1,6.97
4,CCOC(=O)CCCCCN(Cc1ccccc1)S(=O)(=O)c1ccc([N+](=O)[O-])cc1,-30.8
5,Cc1csc(NC(=O)C(C)Oc2ccc(Br)cc2)n1 (centres unmarked),-42.3
6,CCC(C)Sc1nc2c(cnn2-c2ccccc2)c(=O)[nH]1 (centres unmarked),4.27
7,COc1ccc(C)cc1S(=O)(=O)N1CCN(C/C=C/c2ccccc2)CC1,-23.8
8,Cc1ccc(NC(=O)C2CCCN2S(=O)(=O)c2ccc(F)cc2)c(C)c1 (centres unmarked),-8.08
9,NNC(=O)c1ccc(COCC(F)(F)C(F)F)cc1,14.5
10,CC(=O)N1CCN(C(=O)COC(=O)COc2ccc(C#N)cc2)CC1,4.54
11,CCCCC(=O)Nc1ccc(F)c(Cl)c1,-0.287
12,O=C(CNc1ccccc1)N/N=C/c1cc([N+](=O)[O-])ccc1N1CCCC1,4.85
13,O=C(CSc1ncc(C(F)(F)F)cc1Cl)NCC1CCCO1 (centres unmarked),9.64
14,CCCNC(=O)Cn1nc(C(F)(F)F)cc1C,-20.3
15,CCOc1ccccc1CNC(=O)c1cc2occc2n1C,3.12
16,CC(=O)/C(=C\N(C)C)Sc1ccc(Cl)cc1,-1.31
17,CCOC(=O)N1CCN(c2nc(-c3cccs3)cc(C(F)(F)F)n2)CC1,20.6
18,O=C(N/N=C\C1C(=O)NC(=S)N(c2ccccc2)C1=O)c1ccc(O)cc1 (centres unmarked),19.4
19,CCOCCn1c(=O)c2c(nc3n2CCCN3CCc2ccccc2)n(C)c1=O,-22.8
20,CCOC(=O)c1c(C)[nH]c(NC(=O)NNC(=O)c2ccc(OC)cc2)c1C,0.184
21,O=C(O)CCCC(=O)Nc1ccc(OCc2nc3ccccc3s2)cc1,15.1
22,Clc1cccc(N2CCN(c3nnnn3-c3ccccc3)CC2)c1,-28.9
23,CCc1nc(CNC(=O)C2CCC(=O)N(Cc3cccc(OC)c3)C2)no1 (centres unmarked),17.8

row,Structure (SMILES),"hERG current change (%, negative = inhibition) at 10uM [%]"
1,Cc1ccc(NC(=S)Nc2ccc3[nH]c(=O)[nH]c3c2)cc1,11.4
2,CCOC(=O)C1CCN(CC(=O)N2CCc3ccccc32)CC1,-25.4
3,NS(=O)(=O)c1ccc(N/N=C/c2ccccc2C(=O)O)c([N+](=O)[O-])c1,2.22
4,CCSc1nnc(C)c2ccccc12,12.9
5,Cc1onc(-c2ccccc2)c1C(=O)N1CCN(S(=O)(=O)c2ccc3c(c2)OCCO3)CC1,-17.2
6,O=C(CN1CCOCC1)c1cccc2ccccc12.O=C(O)C(=O)O,5.8
7,CC(C)C(NC(=O)c1ccccc1NC(=O)c1ccco1)C(=O)O (centres unmarked),-14.1
8,COc1cc2c(cc1OC)CN(CCC(=O)c1ccc(Br)cc1)CC2,-66.9
9,CCOc1ccc(NC(=O)C2CCN(C(=O)NC3CCCCC3)CC2)cc1,9.67
10,CC1(C)CC(=O)C=C(NC2CCCCCCC2)C1,-11.9
11,COc1ccc(Nc2nc(N3CCOCC3)nc(N3CCOCC3)n2)cc1,11.7
12,O=C(O)c1ccccc1C(=O)c1ccc(Sc2ccc(Cl)cc2)c([N+](=O)[O-])c1,6.94
13,Cc1ccc2sc(NNC(=O)c3ccc4c(c3)OCCO4)nc2c1C,4.4
14,COC(=O)c1c(NC(=O)COC(=O)c2ccc(NC(=O)CC#N)cc2)sc2c1CCCCC2,17.6
15,COc1cccc(N2C(=O)N(c3ccccc3)C3CS(=O)(=O)CC32)c1 (centres unmarked),-8.69
16,N#C/C(=C/c1ccncc1)c1nc2ccccc2c(=O)[nH]1,1.82
17,CCN(CC)S(=O)(=O)c1ccc(N2CCc3ccccc3C2)nc1,0.99
18,CCCCNC(=O)NC(C(=O)OC)C12CC3CC(CC(C3)C1)C2 (centres unmarked),-21.7
19,C[C@H](NC(=O)c1ccc(Cl)cc1)C(=O)NNC(=O)c1cccs1,12.2
20,OCCN1CCN(Cc2cc(Cl)c3cccnc3c2O)CC1,16.6
21,Cc1cc(C)nc(SCC(=O)N/N=C/c2cccs2)n1,4.66
22,CCCN(CCC)S(=O)(=O)c1ccc(C(=O)Nc2c(C)n(C)n(-c3ccccc3)c2=O)cc1,6.2
23,Cc1ccc(S(=O)(=O)NCCCC(=O)O)cc1,15.7

row,Structure (SMILES),"hERG current change (%, negative = inhibition) at 10uM [%]"
1,O=C(OCC(=O)c1ccc(Cl)cc1Cl)c1cnccn1,-58.3
2,CC(C)O.Cc1ccc(-c2cc(C(=O)O)n(-c3ccc(S(N)(=O)=O)cc3)n2)cc1,21.6
3,COc1ccc(CCNCc2c(-c3ccccc3)n(C)c3ccccc23)cc1.O=C(O)C(=O)O,-52.3
4,COc1ccc(Cl)cc1S(=O)(=O)NCc1ccncc1,4.02
5,OCC(CO)(CO)N=Cc1c(O)ccc2ccccc12,-0.63
6,O=C(Nc1ccccc1F)NC1CCCCCCC1,1.46
7,COc1ccccc1C(=O)Nc1nc(-c2ccc3c(c2)OCCO3)cs1,7.44
8,COc1cc(NC(=O)C2CCCN(S(=O)(=O)c3cnc[nH]3)C2)cc(OC)c1 (centres unmarked),10.8
9,Cc1cc(C)n(C(=O)c2ccc([N+](=O)[O-])cc2N)n1,19.8
10,CCOC(=O)c1ccc(NC(=O)Cn2ncc(Cl)c(Cl)c2=O)cc1,-32.2
11,CCOC(=O)c1cnc2ccc(C(=O)OC)cc2c1NCCCN1CCOCC1,-60.5
12,O=C(CN1C(=O)NC2(CCc3ccccc32)C1=O)c1ccc(Br)cc1 (centres unmarked),-16.5
13,O=C(CN1C(=O)/C(=C2\SC(=S)N(C3CCS(=O)(=O)C3)C2=O)c2ccccc21)Nc1ccccc1 (centres unmarked),3.47
14,Cc1cccc(C)c1NC(=O)CN(C)C(C)C(=O)Nc1ccccc1-c1ccccc1 (centres unmarked),-3.77
15,CCn1c(SCC(=O)NCC2CCCO2)nnc1-c1ccccc1 (centres unmarked),-12.1
16,Cc1ccccc1N1CC(C(=O)Nc2ccc(S(=O)(=O)N3CCCCC3)cc2)CC1=O (centres unmarked),6.45
17,CN1CCN(C(=O)c2cc3sccc3n2CC(=O)c2ccccc2)CC1,-27.6
18,Cc1cc(C(=O)NNC(=O)C2CCCC2)c(C)o1,25
19,CC(=O)Nc1ccc(S(=O)(=O)NCc2cn3ccsc3n2)cc1,-0.617
20,CC(NC(=O)COC(=O)/C=C/c1ccc2c(c1)OCO2)c1ccccc1 (centres unmarked),-12.4
21,COc1cccc2c1CCc1c-2nc2ccccc2c1C(=O)O,17.2
22,CC(C)c1ccc(N(C(=O)c2ccco2)C(C(=O)NC2CCCC2)c2cccnc2)cc1 (centres unmarked),-25.3
23,O=C1C=C(c2ccc(CO)cc2)C[C@@H](c2ccc3c(c2)OCO3)C1,-44.3

row,Structure (SMILES),"hERG current change (%, negative = inhibition) at 10uM [%]"
1,CCOC(=O)c1c(NC(=O)CSc2nnc3c(Cl)cc(Cl)cn23)sc2c1CCC2,-19.2
2,Cc1ccc(NC(=O)c2ccc(OC(F)F)cc2)cc1S(=O)(=O)N(C)C,-10.4
3,CCCCCCc1c(C)c2ccc(OCC(=O)N[C@@H](Cc3ccccc3)C(=O)O)cc2oc1=O,8.79
4,O=C(CSCc1c(Cl)cccc1Cl)Nc1ccccc1C(=O)N1CCOCC1,-7.68
5,CCCc1cc(=O)[nH]c(SCC(=O)NC(=O)OCC)n1,3.48
6,CC1=C(C(=O)Nc2ccccc2)C(c2ccncc2)n2nnnc2N1 (centres unmarked),-4.41
7,CSc1ccc(S(=O)(=O)N(CC(=O)NN=C2CCN(C)CC2)c2ccc(C)cc2)cc1,-21.3
8,COc1ccccc1NC(=S)NNC(=S)Nc1ccc(OC(F)F)cc1,25.8
9,O=C(COc1cccc(C(F)(F)F)c1)N1CCN(c2ccccc2O)CC1,-10.3
10,COc1ccc(/C=N/NC(=O)C(=O)NCC2CCCO2)cc1 (centres unmarked),-20.4
11,Nc1c(-c2ccccc2)c(CN2CCOCC2)nn1-c1ccccc1,-2.19
12,Cc1ccc(NS(=O)(=O)c2cc3[nH]c(=O)c(=O)[nH]c3cc2C)c(C)c1,-0.443
13,CCOC(=O)N1CCN(C(=O)C2CCN(C(=O)c3cc4sccc4n3CC)CC2)CC1,-28.8
14,Cc1cc(C(=O)Cn2ncc(Cl)c(Cl)c2=O)c(C)n1CC(F)(F)F,7.13
15,Cc1c(C)c2c(OCC(=O)N3CCC(C(=O)NCC(C)C)CC3)cc3c(c2oc1=O)CCC(C)(C)O3,-45.2
16,CCOC(=O)N1CCC(c2cc(=O)n3[nH]c(-c4ccccc4)cc3n2)CC1,16.5
17,S=C(NCCCN1CCOCC1)NC1CC1,9.22
18,COc1ccc2c(c1)CCc1c(C(=O)NC3CCCCC3)noc1-2,22.9
19,COc1ccc(C(CNC(=O)Cc2ccc(Cl)c(Cl)c2)N(C)C)cc1 (centres unmarked),-27.1
20,Cc1nn(-c2ccccc2)c2c1C(c1c(C)[nH]c(C#N)c1C)C(C#N)=C(N)O2 (centres unmarked),1.77
